Laboratory results from PubChem BioAssay AID1030 (National Center for Advancing Translational Sciences (NCATS), 2008).
Out of some 220,000 compounds screened, about 16,000 (7.3%) were called active. The shares of active, inactive and inconclusive entries below differ from those in the screen. The call rests on the fitted dose curve; in most records, active means well fitted inhibition curve with a large enough effect (not every such curve was filed as active); inconclusive means small, poorly fitted or top-dose-only effect, or another doubt; inactive means no such curve, though single readings can be large or run the other way. A potency beside an inconclusive call is a rough fit, not a confirmed value.

target: Aldehyde dehydrogenase 1A1 (Homo sapiens) (UniProt P00352); assay: qHTS Assay for Inhibitors of Aldehyde Dehydrogenase 1 (ALDH1A1); conditions: Purified ALDH1A1, NADH fluorescence, propionaldehyde substrate; series mostly up to 75.3 µM; activity, negative = inhibition: at the top concentration;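 on activity, negative = inhibition: plate controls were no enzyme wells and a reference inhibitor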
Potency means the concentration at half of the fitted maximal effect; tags describe the fitted curve by direction and shape.

Sequence of UniProt P00352 (P00352 whole entry, looked up): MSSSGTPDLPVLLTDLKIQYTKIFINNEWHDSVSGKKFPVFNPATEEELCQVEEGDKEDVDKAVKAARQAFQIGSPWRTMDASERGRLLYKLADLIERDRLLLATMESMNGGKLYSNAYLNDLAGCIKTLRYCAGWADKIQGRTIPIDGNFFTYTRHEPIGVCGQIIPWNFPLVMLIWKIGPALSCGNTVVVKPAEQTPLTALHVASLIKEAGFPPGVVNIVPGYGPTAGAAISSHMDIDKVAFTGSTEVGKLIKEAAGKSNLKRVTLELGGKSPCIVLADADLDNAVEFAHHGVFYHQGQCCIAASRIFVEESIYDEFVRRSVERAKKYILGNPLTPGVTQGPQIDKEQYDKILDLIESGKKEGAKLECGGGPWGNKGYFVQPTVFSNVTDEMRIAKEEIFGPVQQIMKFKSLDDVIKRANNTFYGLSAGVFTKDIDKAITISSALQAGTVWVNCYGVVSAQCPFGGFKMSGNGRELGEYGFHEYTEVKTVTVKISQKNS

activity, negative = inhibition, inactive:
CCOC(=O)N1CCN(S(=O)(=O)c2cc(Br)cc3c2N(C(C)=O)C(C)C3)CC1 (stereo not given) 7.22%
Cc1ccc(S(=O)(=O)N(C)CCCC(=O)Nc2ccc(C)cc2C)cc1 8.91%
CC(=O)Nc1ccc(-c2ccc(NC(C)=O)cc2)cc1 9.62%
O=C1c2ccccc2C(=O)N1c1ncn[nH]1 16.8%
O=c1c(Cl)c(N2CCNCC2)cnn1C12CC3CC(CC(C3)C1)C2 4.05%
C=CCn1c(SCC(=O)N2CCN(c3ccccc3)CC2)nnc1-c1ccco1 -8.28%
COc1ccc(C(F)(F)F)cc1NC(=O)c1nc2nc(C)cc(C(F)F)n2n1 -12.2%
O=C(N/N=C/c1ccc(-c2ccc([N+](=O)[O-])cc2)o1)C(O)c1ccccc1 (stereo not given) -9.38%
N#CCn1c(C2CCCCC2)nc2ccccc2c1=O -1.44%
CCCC(=O)O[C@]1(C(=O)COC(C)=O)CC[C@H]2[C@@H]3C[C@H](F)C4=CC(=O)C=C[C@]4(C)[C@@]3(F)[C@@H](O)C[C@@]21C -5.94%
Cc1cc2ncc(-c3ncc(C(F)(F)F)cc3Cl)cn2n1 6.96%
Fc1ccc(-c2nc3n(c2-c2ccncc2)CCS3)cc1 -5.89%
CCOC(=O)c1nc(C)sc1-c1ccnn1S(=O)(=O)c1ccc(Cl)cc1Cl -14.1%
CCC(c1nnnn1Cc1ccc(F)cc1)N(CCCO)Cc1cc2cc3c(cc2[nH]c1=O)OCO3 (stereo not given) -10.4%
COc1ccc(C(=O)C2CCCN(S(=O)(=O)C(C)C)C2)c(C)c1 (stereo not given) 10.2%
O=C(N/N=C\c1ccc(Cl)cc1)c1sccc1-n1cccc1 3.41%
Cc1ccccc1NC(=S)N(C)Cc1cn(C)c2ccccc12 2.23%
COc1cccc(C2C(C#N)=C(N)OC3=C2C(=O)CC(c2ccco2)C3)c1OCc1ccc(F)cc1 (stereo not given) -7.38%
COc1ccc(OC)c(-n2c(SCC(N)=O)nnc2-c2c[nH]c3ccccc23)c1 3.92%
O=C(O)CCCNC(=O)c1cccc(C(=O)NCCCC(=O)O)n1 0.353%
Cc1cc(C)cc(NC(=O)COc2ccc(C(=S)N3CCOCC3)cc2)c1 8.85%
O=C(c1cccc(F)c1)N1CCC2(CC1)CN(Cc1ccccc1)C2 3.03%
O=C(Nn1nnnc1Nc1ccccc1)C12CC3CC(CC(C3)C1)C2 -10.2%
COc1ccc(-n2c(SCC(=O)Nc3ccccc3)nnc2-c2ccc(NS(=O)(=O)c3ccc(C)cc3)cc2)cc1 10.8%

Potency, inconclusive:
O=C(NCC1CCCO1)C(c1ccncc1)N(Cc1cccs1)C(=O)CN1C(=O)c2ccccc2S1(=O)=O (stereo not given) 15 µM [inhibitor, partial curve]
COc1ccc(NC(=O)C2CCCN2C(=O)Oc2ccccc2)cc1 (stereo not given) 11.2 µM [inhibitor, partial curve]
O=C(NCc1ccccc1)C12CN(Cc3ccccc3)CC1C(c1ccc([N+](=O)[O-])cc1)=NO2 (stereo not given) 39.8 µM [inhibitor, single point]
O=C(CC(=O)c1ccccc1)Nc1cccnc1 1.12 µM [inhibitor, full curve]
CCCn1c(CCC(=O)O)ccc1-c1ccc(OC)cc1 31.6 µM [inhibitor, partial curve]
CC1Cc2ccccc2N1C(=O)CSc1nnnn1Cc1ccccc1 (stereo not given) 17.8 µM [inhibitor, partial curve]
O=C(CNS(=O)(=O)c1ccc(Br)s1)NCc1ccc2c(c1)OCO2 39.8 µM [inhibitor, single point]
O=C(Nc1ccc(F)cc1)N1CCCC(c2nc3c(nnn3Cc3ccccc3Cl)c(=O)[nH]2)C1 (stereo not given) 39.8 µM [inhibitor, single point]
COc1ccccc1N1C(=O)c2cccc3c(C(=O)O)ccc(c23)C1=O 44.7 µM [inhibitor, single point]
COc1ccc(/C=C/C(=O)C2(O)CCCCC2)cc1OC 39.8 µM [inhibitor, single point]
O=C(CSc1nnnn1-c1ccc2c(c1)CCC2)Nc1ccc2c(c1)OCCO2 17.8 µM [inhibitor, partial curve]
Cc1ccc(NC(=O)C2CCN(S(=O)(=O)c3c(C)noc3/C=C/c3ccco3)CC2)nc1 39.8 µM [inhibitor, single point]
COc1ccc(CCNc2nc(-c3sc(N)nc3C)cs2)cc1OC 12.6 µM [inhibitor, partial curve]
CC1=NN(c2ccc(S(=O)(=O)O)cc2)C(=O)/C1=C\c1ccc(Cl)cc1 3.55 µM [inhibitor, single point]
Cc1nn(-c2ccccn2)c2c1C(c1ccncc1)C1=C(CC(C)(C)CC1=O)N2 (stereo not given) 25.1 µM [inhibitor, partial curve]
O=C(Nc1ccc(Cl)cc1)[C@@H]1[C@@H]2C(=O)N(c3ccc4ccccc4c3)C(=O)[C@@H]2[C@H]2C=CC=NN21 35.5 µM [inhibitor, single point]
COc1ccc(-c2nnc(SCC(=O)Nc3sc4c(c3C#N)CCCC4)n2-c2ccccc2)cc1 39.8 µM [inhibitor, single point]
C/C(CCc1oc2ccc(Br)cc2c1-c1ccc(C)o1)=N/O 35.5 µM [inhibitor, single point]
CCn1c(C2CC(=O)N(c3ccc(C)c(C)c3)C2)nc2ccccc21 (stereo not given) 39.8 µM [inhibitor, single point]
COc1ccc(NC(=S)NC(C)Cc2cccs2)cc1 (stereo not given) 39.8 µM [inhibitor, single point]
Cc1sc(NC(=S)NC(=O)CCc2ccccc2)c(C(N)=O)c1C 39.8 µM [inhibitor, partial curve, poor fit]
O=C(CSc1nnc(Cn2c(=O)sc3ccccc32)n1-c1ccccc1)Nc1nccs1 35.5 µM [inhibitor, single point]
CC(NC(=O)COc1ccc([N+](=O)[O-])cc1)c1ccccc1 (stereo not given) 39.8 µM [inhibitor, single point]
Cc1ccc(C)c2[nH]c(=O)c(C(c3nnnn3C3CCCC3)N3CCOCC3)cc12 (stereo not given) 25.1 µM [inhibitor, single point]
S=C(NCc1ccco1)Nc1ccccc1Cl 39.8 µM [inhibitor, single point]
Cc1nc(Nc2ccc3c(c2)OCCO3)c2nnn(Cc3ccccc3Cl)c2n1 25.1 µM [inhibitor, partial curve, poor fit]
CCOC(=O)c1ccc(NC(=O)CSc2nc3cccnc3n2C)cc1 25.1 µM [inhibitor, single point]
COCCn1c(=O)c(CCc2ccccc2)nc2cnc(Oc3ccc(OC)cc3)nc21 22.4 µM [inhibitor, single point]
CCN(CC)c1ccc(NC(=O)c2[nH]c(C)c(C(C)=O)c2C)c(C)c1 31.6 µM [inhibitor, single point]
Cc1ccc(OCC(=O)O/N=C(\N)c2ccccn2)cc1 39.8 µM [inhibitor, single point]
CCOC(=O)c1sc(N=NC2=C(O)CC(C)(C)CC2=O)c(C(=O)OCC)c1C 0.708 µM [inhibitor, full curve, poor fit]
CC(=O)c1c(C)nc(C)nc1NC(=O)C(C)C 28.2 µM [inhibitor, partial curve]
O=c1cc(CN2CCN(c3ccccc3)CC2)c2c(ccc3ccccc32)o1 39.8 µM [inhibitor, single point]
COc1ccc(-c2nc3cnc(Oc4ccccc4)nc3n(C3CC3)c2=O)cc1 22.4 µM [inhibitor, partial curve]
O=C1NC2c3ccccc3C(=O)N2c2c1cnn2-c1ccccc1 (stereo not given) 39.8 µM [inhibitor, single point]

Potency, active:
Cn1c(SCC(=O)Nc2ccccc2-c2ccccc2)nnc1-c1ccco1 8.91 µM
COc1cccc(/C=N/n2nnc3c(cnn3-c3ccccc3)c2=O)c1 0.891 µM
Cc1ccc(C)c(OCCOCCN2CC(C)OC(C)C2)c1C (stereo not given) 15.8 µM
COc1cccc(C2C(C#N)=C(N)SC(c3ccccc3)C2[N+](=O)[O-])c1 (stereo not given) 5.62 µM
CC(=O)Nc1ccc(S(=O)(=O)Nc2ccc(S(=O)(=O)N3CCCCCC3)cc2)cc1 3.98 µM
COc1ccc(C(O)CNc2ccc(C)cc2)cc1 (stereo not given) 20 µM
CCOc1ccc(N2CSC3=C(C#N)C(c4ccco4)CC(=O)N3C2)cc1 (stereo not given) 4.47 µM
O=c1oc2cc(Oc3ccc(C(F)(F)F)cc3[N+](=O)[O-])ccc2c2c1CCC2 15.8 µM
CCNc1ccc(S(=O)(=O)N(C)C)cc1NCC(=O)Nc1ccccc1F 20 µM
COc1cccc(-c2nnc3sc(-c4ccco4)nn23)c1 28.2 µM
O=C(NCc1ccco1)c1nc2c(nnn2Cc2cccc(Cl)c2)c(=O)[nH]1 28.2 µM
Cc1ccccc1NC(=O)c1cc(N)ccc1N1CCCCC1 10 µM
CC(C)(C)c1cnnn1-c1ccc(C(=O)CCl)cc1 0.708 µM
O=S1(=O)c2ccccc2N=NN1Cc1ccc(Cl)cc1 2.38 µM
Cc1ccc(CCNC(=O)C2CCN(C(=O)c3sccc3-n3cccc3)CC2)cc1 1 µM
O=C(N/N=C/c1ccc(N2CCOCC2)o1)c1cccc([N+](=O)[O-])c1 17.8 µM
